The campaign covered roughly 150,000 compounds. About 540 (0.36%) showed an effect of 50% or more. Some of the results follow.

The assay concerns Plasmodium falciparum. Put plainly: Primary screen in NF54 nanoGlo assay, in single point, at 2uM, 72h; a lower Z score goes with more inhibition. The note with it: timepoint 72 hour. It is filed as functional, Erythrocyte.
In the case of `CC1CC(C)CC(NC(=O)c2ccc(=O)n(CCF)n2)C1` (centres undefined), the % Inhibition (commonly the change of the read-out against control, counted positive when it falls) is -9% and the Z score is recorded as 1.32.
On the same counts, the results for `CCC(C)(C)c1nnc(NC(=O)C(C)C)s1` are -9% and 1.61.
On to `CCN(CCC1CCN(C(=O)Nc2ccc(Cl)c(F)c2)CC1)CC1CC1`, for which the “% Inhibition” value was 4% and the Z score is on record as -0.4.
On to `Cc1cc(C(=O)N2CCC[C@H](Cn3cc(C4CCCC4)nn3)C2)nc(C)n1`, for which the “% Inhibition” value is -2% and the Z score turned out to be 0.21.
For `NC(=O)c1ccc(O[C@H]2CCN(C(=O)CC3CCCCC3)C2)nc1`, in that order: -11% and 1.8.
Take `Cc1cc(CS(=O)(=O)N2CCc3c2cccc3C(F)(F)F)on1`: the “% Inhibition” value was -5% and the Z score is given as 0.87.
As to `CCCCn1nc(C2CCN(C(=O)OC(C)(C)C)CC2)c2c1CCOC2`, the “% Inhibition” value came out at 5% and the Z score is on record as -1.
On the same counts, the results for `O=C(COc1ccccc1)Nc1nc2ccc(Cl)cc2o1` are -7% and 1.39.
Consider `COCCn1c(C)cnc1CCNC(=O)c1ccco1`, for which the “% Inhibition” value is given as -9% and the Z score is listed as 1.32.
As to `Cn1cccc1-c1noc(CNC(=O)[C@@H]2CCCO2)n1`, the “% Inhibition” value is given as -20% and the Z score worked out at 2.53.
As for `O=C1CCC2(CCN1)CCN(S(=O)(=O)c1ccc3c(c1)OCCO3)CC2`, the “% Inhibition” value is recorded as -3% and the Z score is given as 0.35.
In the case of `CS(=O)(=O)N1C2CCC(C2)C1C(=O)NC1CCCC1` (centres undefined), the “% Inhibition” value stood at 3% and the Z score is on record as -0.58.
`COc1ccc(NC(C)(C)C(=O)N2CCN(Cc3ccc(F)cc3)C(=O)C2)cc1`: the “% Inhibition” value is -16% and the Z score is 2.53.
On the same counts, the results for `O=C(C1CCCC1)N1CC[C@@]2(CCCN(CC3CCCCC3)C2=O)C1` are -13% and 1.7.
On to `Cc1csc(CN(C)Cc2nonc2C)n1`, for which the “% Inhibition” value was found to be 3% and the Z score was -0.55.
As for `CC(C)C[C@H](O)C(=O)N1CCC2(CC1)C(=O)N(C)c1ccccc12`, the “% Inhibition” value is given as -10% and the Z score turned out to be 0.9.
In the case of `COc1ccc(C)cc1NC(=O)[C@@H]1CCCN1C(=O)c1cc(C(N)=O)cn1C`, the “% Inhibition” value is listed as -12% and the Z score was determined as 1.44.
With `Cc1onc(-c2c(Cl)cccc2Cl)c1CN1CCO[C@H](C(F)(F)F)C1`, the “% Inhibition” value is -16% and the Z score amounted to 1.51.
Take `CCn1cc(C(=O)NCC2(O)CCC2)cn1`: the “% Inhibition” value was -8% and the Z score was 0.98.
On to `O=C(O)[C@H]1CCCN(Cc2ccccc2OCc2c(F)cccc2Cl)C1`, for which the “% Inhibition” value came to 3% and the Z score is -0.33.
In the case of `Cc1n[nH]cc1CN[C@@H](Cn1cnc2ccccc21)c1ccc(F)cc1`, the “% Inhibition” value is reported as -13% and the Z score came out at 1.21.
With `CCCn1ncc(C(=O)N2CCC(OCc3ccccn3)CC2)c1C`, the “% Inhibition” value was -4% and the Z score was found to be 0.6.
As to `C[C@H](NCC(C)(C)S(C)(=O)=O)c1ccc(-n2cnnn2)cc1`, the “% Inhibition” value was -7% and the Z score is given as 0.79.
As to `COC(=O)c1cnc(N2CC(c3ccccc3)C3CCCC32)nc1` (centres undefined), the “% Inhibition” value is -11% and the Z score came out at 1.2.
For `Oc1ccc(Cl)c(CN2CC(N3CCOCC3)C2)c1Cl`, in that order: -13% and 1.59.
Regarding `Cc1nc(C(=O)OC2CCCCCC2)cs1`, the “% Inhibition” value is given as 8% and the Z score is reported as -1.23.
Consider `C[C@@H](c1cccs1)N(C)Cc1cccc2c1NCC2`, for which the “% Inhibition” value is listed as -12% and the Z score turned out to be 1.4.
With `COC(=O)c1ccc2c(n1)CCCN2S(=O)(=O)c1ccccc1`, the “% Inhibition” value is 24% and the Z score is -2.84.
Take `Cc1csc(-c2cc(S(=O)(=O)NCCN3CCC(C)CC3)cn2CC(=O)N2CCCCC2)n1`: the “% Inhibition” value turned out to be 3% and the Z score is recorded as -0.39.
On the same counts, the results for `CC(C)(C)OC1CC(NC(=O)[C@@H](O)Cc2ccccc2)C1` (some centres undefined) are -7% and 0.94.
For `c1coc(-c2ncc(-c3nccn3-c3cnc4ccccc4c3)cn2)c1`, in that order: 7% and -0.6.
On to `CCc1cc(N[C@H]2CCCN(Cc3cccc(O)c3)C2)n2nccc2n1`, for which the “% Inhibition” value was -9% and the Z score is 1.42.
For the compound `CN1CCC(O)(c2nc(-c3ccco3)nn2CC(C)(C)O)CC1`, the “% Inhibition” value is -2% and the Z score came out at 0.4.
Turning to `O=S(=O)(c1cncc(F)c1)N1CCOC2CCCCC21` (centres undefined), the “% Inhibition” value is -2% and the Z score stood at 0.24.
`CCOc1ccccc1C(=O)N1C[C@H]2C[C@H](C1)[C@H]1CCCC(=O)N1C2`: the “% Inhibition” value was -6% and the Z score is given as 1.25.
Consider `CCOc1cccc(-n2cc(-c3ccccc3)nc2NC(=O)CN(CC(C)C)C(=O)Cc2ccccc2)c1`, for which the “% Inhibition” value worked out at 4% and the Z score is -0.59.
Consider `CC(=O)c1ccc(Cl)c(S(=O)(=O)Nc2cccc3c2C(=O)N(C)C3=O)c1`, for which the “% Inhibition” value worked out at 7% and the Z score is reported as -0.87.
For `c1ccc(-c2ccc(OCCCCN3CCOCC3)cc2)cc1`, the “% Inhibition” value is given as -13% and the Z score worked out at 1.68.
Take `CCn1nc(C)n2cc(S(=O)(=O)NC3CCCCCC3)cc2c1=O`: the “% Inhibition” value was found to be 6% and the Z score was -0.75.
For the compound `c1nc(CNc2nnc(CC3CCCC3)o2)cs1`, the “% Inhibition” value came to 2% and the Z score is reported as -0.3.
For `C[C@H](Oc1ccccc1)C(=O)N1CCc2cc(S(=O)(=O)N3CCOCC3)ccc21`, the “% Inhibition” value is -6% and the Z score is 0.81.
As for `CC(C)N1C(=O)[C@H](C)N(C(=O)NC2CCCC2)c2cccnc21`, the “% Inhibition” value was determined as 1% and the Z score was -0.2.
